From PubChem BioAssay AID1030 (National Center for Advancing Translational Sciences (NCATS), 2008)
Screen size: about 220,000 compounds; about 16,000 (7.3%) were called active. Inconclusive means that the source gave no clear call. Such entries were picked first, then a sample of the others. The call rests on the fitted dose curve; in most records, active means well fitted inhibition curve with a large enough effect (not every such curve was filed as active); inconclusive means small, poorly fitted or top-dose-only effect, or another doubt; inactive means no such curve, though single readings can be large or run the other way. Potencies of inconclusive entries are left out as doubtful fits.

Molecular target: Aldehyde dehydrogenase 1A1 (Homo sapiens) (UniProt P00352)
Assay: qHTS Assay for Inhibitors of Aldehyde Dehydrogenase 1 (ALDH1A1);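 on activity, negative = inhibition: plate controls were no enzyme wells and a reference inhibitor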
Conditions: Purified ALDH1A1, NADH fluorescence, propionaldehyde substrate; series mostly up to 75.3 µM
Potency means the concentration at half of the fitted maximal effect; tags describe the fitted curve by direction and shape.

UniProt P00352, sequence (P00352 whole entry, looked up): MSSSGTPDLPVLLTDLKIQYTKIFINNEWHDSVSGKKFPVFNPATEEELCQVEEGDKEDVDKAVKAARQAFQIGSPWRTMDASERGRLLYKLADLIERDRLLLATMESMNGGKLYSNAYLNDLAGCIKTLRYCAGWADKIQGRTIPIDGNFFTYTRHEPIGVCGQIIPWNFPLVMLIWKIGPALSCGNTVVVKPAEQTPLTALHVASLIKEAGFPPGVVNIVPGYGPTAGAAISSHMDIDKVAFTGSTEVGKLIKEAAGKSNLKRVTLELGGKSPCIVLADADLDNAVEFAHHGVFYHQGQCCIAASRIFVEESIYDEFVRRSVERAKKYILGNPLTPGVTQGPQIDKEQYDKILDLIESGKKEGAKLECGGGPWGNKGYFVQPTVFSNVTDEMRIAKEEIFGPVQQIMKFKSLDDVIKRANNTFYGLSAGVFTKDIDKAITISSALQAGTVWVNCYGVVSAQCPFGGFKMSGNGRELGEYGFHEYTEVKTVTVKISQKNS

Row | Structure (SMILES) | Potency | activity, negative = inhibition
1 | CN1/C(=C\C(=O)Nc2ccc(Br)cc2)C(C)(C)c2ccccc21 | inconclusive [inhibitor, single point] | 
2 | COc1ccc2cc(CN(CC3CCCO3)C(=O)Nc3ccccc3)c(=O)[nH]c2c1 (stereo unspecified) | inconclusive [inhibitor, partial curve] | 
3 | COc1ccc(C(=O)Nc2ccccc2N2CCOCC2)cc1[N+](=O)[O-] | inconclusive [inhibitor, single point] | 
4 | CCOc1ncccc1C(=O)NCc1ccccc1Cl | inactive | 
5 | O=C(c1sc2cc([N+](=O)[O-])ccc2c1Cl)N1CCOCC1 | inactive | 
6 | CCN(CC)CC(=O)Nc1sc2c(c1C(=O)c1ccccc1OC)CCC2 | inactive | 
7 | COc1ccc(-n2c(=O)c(-c3ccc(Cl)cc3)nc3cnc(N4CCNCC4)nc32)cc1 | inconclusive [inhibitor, partial curve] | 
8 | CC(=O)N(C)C1=C(O)c2ccccc2C(=O)C1=O | inconclusive [inhibitor, single point] | 
9 | COc1ccc(C2CC(=O)C(C3NCCc4ccccc43)=C(O)C2n2cncn2)cc1 (stereo unspecified) | inconclusive [inhibitor, partial curve] | 
10 | CC(C)c1[nH]nc2c1C(c1cccc(OC(=O)N3CCOCC3)c1)C(C#N)=C(N)O2 (stereo unspecified) | active: 22.4 µM | 
11 | C=CCn1c(-c2cccc([N+](=O)[O-])c2)n[nH]c1=S | inconclusive [inhibitor, partial curve, poor fit] | 
12 | CC1Cc2nc(SCC(=O)Nc3nccs3)n(C)c(=O)c2S1 (stereo unspecified) | inconclusive [inhibitor, single point] | 
13 | O=C(Nc1ccc(-c2nnc3n2CCCCC3)cc1)c1cnccn1 | inactive | 
14 | O=C(O)COc1ccc2c(-c3ccccc3)cc(=O)oc2c1 | inconclusive [inhibitor, single point] | 
15 | Clc1ccccc1-c1nnc2sc(C3COc4ccccc4O3)nn12 (stereo unspecified) | active: 7.08 µM | 
16 | CN(C)c1ccc(C(=S)N2CCOCC2)cc1 | inconclusive [inhibitor, single point] | 
17 | O=C(NCCc1ccccc1)C1CCN(S(=O)(=O)N2CCCC2)CC1 | inconclusive [inhibitor, partial curve] | 
18 | CN(C)c1ccc(/C=N/n2ncc3ccccc32)cc1 | inconclusive [inhibitor, partial curve] | 
19 | Nc1nc2c(ncn2[C@@H]2C=C[C@@H](CO)C2)c(=O)[nH]1 |  | inactive: -11.6% [at 13.5 µM]
20 | CCCC(=O)NCCc1c2n(c3ccc(OC)cc13)CCCc1ccccc1-2 | inconclusive [inhibitor, partial curve] | 
21 | Cc1cc2ncn(S(=O)(=O)N3CCCCC3)c2cc1C | inconclusive [inhibitor, partial curve] | 
22 | Fc1ccc(C2CC(c3ccco3)=Nc3ccccc3S2)cc1 (stereo unspecified) | inconclusive [inhibitor, single point] | 
23 | COC(=O)c1ccc(NC(=O)CSc2nnc(C)n2-c2ccccc2)cc1 | inconclusive [inhibitor, partial curve] | 
24 | Cc1c(NC(=O)CN2c3cccc4cccc(c34)S2(=O)=O)c(=O)n(-c2ccccc2)n1C | inconclusive [inhibitor, single point] | 

Row | Structure (SMILES) | Potency | activity, negative = inhibition
25 | Cc1ccc(C2NC(=O)c3c(sc4c3CCN(C)C4)N2)s1 (stereo unspecified) | inconclusive [inhibitor, partial curve] | 
26 | CC(C)CCN1C(=O)c2ccc(C(=O)NCc3ccco3)cc2C1=O | active: 11.2 µM | 
27 | COc1ccccc1NC(=O)CSc1nc2sc(C)c(C)c2c(=O)n1Cc1ccco1 | inconclusive [inhibitor, single point] | 
28 | Cc1nc(-c2ccccc2O)n(S(=O)(=O)N(C)C)n1 | inactive | 
29 | CCOC(=O)C1=C(CC)Nc2ccccc2N=C1NC(=O)c1cccc(S(=O)(=O)N2CCCC2)c1 | inconclusive [inhibitor, partial curve, poor fit] | 
30 | CN(C)S(=O)(=O)c1cccc(NC(=S)N(CCC#N)Cc2cccnc2)c1 | inconclusive [inhibitor, partial curve] | 
31 | CCn1c(SCC(N)=O)nc2c(c1=O)C1(CCCC1)Cc1ccccc1-2 | inconclusive [inhibitor, partial curve] | 
32 | COc1cc(OC)c2c(-c3ccccc3)cc(=O)oc2c1C(CCN1CCOCC1)c1ccc2c(c1)OCO2 (stereo unspecified) | inconclusive [inhibitor, single point] | 
33 | O=C(NC1CCCCCCC1)C1CCN(S(=O)(=O)N2CCCC2)CC1 | inconclusive [inhibitor, single point] | 
34 | CCOC(=O)C(=O)Nc1nnc(Cc2ccc(OC)c(OC)c2)s1 | inactive | 
35 | O=C(NCCc1ccccc1)C1CCN(c2ncccn2)CC1 | inactive | 
36 | O=C(c1oc(=O)c2ccccc2c1-c1ccccc1)N1CCOCC1 | inconclusive [inhibitor, single point] | 
37 | CCCCn1c(=O)[nH]c(=O)c2c1nc(-c1ccc(C#N)cc1)n2C1CCCC1 | inconclusive [inhibitor, partial curve] | 
38 | O=C1c2ccc3c4c(ccc(c24)C(=O)N1CCCCO)C(=O)N(CCCCO)C3=O | inconclusive [inhibitor, single point] | 
39 | COc1ccccc1NC(=S)NNC(=O)c1ccncc1 | inactive | 
40 | C=CCn1c(CCNC(=O)c2cccs2)nnc1SCC(=O)c1ccc(Cl)cc1 | inactive | 
41 | CC(C)N1C(=O)CSC1c1ccc(Br)cc1 (stereo unspecified) | inactive | 
42 | COc1ccc2c(CC(=O)NCC3CCC(C(=O)O)CC3)cc(=O)oc2c1 (stereo unspecified) | inconclusive [inhibitor, partial curve] | 
43 | O=c1c(-c2nc3ccccc3o2)c2oc3ccccc3n2c2ccccc12 | inconclusive [inhibitor, partial curve] | 
44 | CCc1nc(SCC(=O)c2ccc3c(c2)OCCO3)c2ccccc2n1 | inconclusive [inhibitor, single point] | 
45 | CC(C)COC(=O)c1ccc(NC(=O)C2C3CCC(C3)C2C(=O)O)cc1 (stereo unspecified) | inconclusive [inhibitor, single point] | 
46 | COc1ccc(N2CC(C(=O)N/N=C/c3ccccc3)CC2=O)cc1 (stereo unspecified) | inactive | 
47 | COc1ccc(/C=C/C(=O)Nc2cccc(S(=O)(=O)N3CCCC3)c2)cc1OC | inconclusive [inhibitor, partial curve] | 
48 | O=C(O)[C@@H]1CCCNC1 | inactive | 

Row | Structure (SMILES) | Potency | activity, negative = inhibition
49 | CCC(C)Sc1nc2c(c(=O)[nH]c(=O)n2C)n1Cc1ccc(Cl)cc1 (stereo unspecified) | active: 8.91 µM | 
50 | N#CCCCN1C(=O)C(O)(CC(=O)c2ccc3c(c2)OCCO3)c2ccccc21 (stereo unspecified) | inconclusive [inhibitor, partial curve] | 
51 | Cc1ccc(-c2csc(N3CCC(NS(=O)(=O)c4ccc5c(c4)OCCO5)CC3)n2)cc1 | inconclusive [inhibitor, full curve] | 
52 | CCC(C)c1ccc(Nc2ncccc2C#N)cc1 (stereo unspecified) | inconclusive [inhibitor, partial curve] | 
53 | Cc1ccc(-n2ncc3c(=O)n(CC(=O)OCc4ccccc4)cnc32)cc1 | inconclusive [inhibitor, single point] | 
54 | S=C(Nc1ccccc1)Nc1nc2ccccc2n1CCOc1ccccc1 | inconclusive [inhibitor, single point] | 
55 | COC(=O)/C=C/C(=O)Nc1cccnc1 | inactive | 
56 | CCn1cc(-c2nnnn2-c2ccc(Cl)cc2)c(=O)c2ccccc21 | inconclusive [inhibitor, partial curve] | 
57 | O=C(CN1C(=O)C2CCCCC2C1=O)OCC(=O)c1ccc(Cl)s1 (stereo unspecified) | inconclusive [inhibitor, single point] | 
58 | O=C(Nc1ccccc1)c1sccc1Oc1ccc([N+](=O)[O-])cc1F | inconclusive [inhibitor, single point] | 
59 | Cc1cccc(-n2c(C)cc(/C=N\NC(=O)c3cccs3)c2C)c1 | inconclusive [inhibitor, partial curve] | 
60 | COc1ccc(/C=C2\SC(=O)NC2=S)cc1OC | active: 17.8 µM | 
61 | O=[N+]([O-])c1ccccc1/C=N/Nc1nnc(-c2ccccc2)c(-c2ccccc2)n1 | active: 0.282 µM | 
62 | CCn1c(/C=N/NC(=O)c2ccc(OC)cc2)nc2ccccc21 | inconclusive [inhibitor, single point] | 
63 | COc1ccc(CCNC(=O)c2ccccc2SC)cc1 | inactive | 
64 | c1ccc(CNc2cc(-c3ccoc3)ncn2)cc1 | active: 22.4 µM | 
65 | CC1(C)Cc2c(C#N)c(NC3CCCCC3)nc(-c3ccco3)c2CO1 | inconclusive [inhibitor, partial curve] | 
66 | CC1=C(C(=O)Nc2ccccc2)C(c2cccnc2)n2nc(-c3cccnc3)nc2N1 (stereo unspecified) | inconclusive [inhibitor, single point] | 
67 | COc1ccccc1Nc1c([N+](=O)[O-])cncc1[N+](=O)[O-] | inconclusive [inhibitor, partial curve] | 
68 | CN1CCC(=NNC(=O)CSCc2ccccc2)CC1 | active: 25.1 µM | 
69 | COc1ccccc1C(=O)NCC(=O)OC(C)C(=O)NC(=O)NC1CCCCC1 (stereo unspecified) | inactive | 
70 | COc1ccc(-c2nnc3ccc(SCC(=O)NCC4CCCO4)nn23)cc1 (stereo unspecified) | inactive | 
71 | CC(=O)c1cccc(NC(=O)Nc2cnn(Cc3ccc(F)cc3)c2)c1 | inconclusive [inhibitor, single point] | 
